Screen size: about 46,000 compounds; about 60 (0.1%) were called active. Not shown: some 3% with an inconclusive outcome. Calls come from the whole dose curve; as a rule, active = well fitted inhibition curve with a large enough effect; inconclusive = small, poorly fitted or top-dose-only effect; inactive = no such curve, though single readings can be large or run the other way. The list shows a part of the results.
Assay: Primary qHTS assay for Inhibitors of ovarian cancer metastasis using an organotypic tumor microenvironment (TME) model.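 For activity change, negative = inhibition: plate controls were DMSO wells for no effect and tomatine positive control wells for full effect.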 Note: nearly all actives have a fitted effect of over 65% in size.
Details: SKOV3ip1-GFP adhesion/invasion on 3D omental model, fluorescence; series mostly up to 45.8 µM; activity change, negative = inhibition: at the top concentration
Procedure, shortened: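 qHTS, 4-pt dose (0.36-46 umol/L); SKOV3ip1-GFP, 1,200 cells/well, no FBS; primary omental fibroblast/mesothelial co-culture 48 h pre-grown; 2 h RT + 16 h 37 C; PBS wash, 4% PFA; GFP count 488/509 nm.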

Row | Structure (SMILES) | activity change, negative = inhibition | outcome
1 | Cc1cccc2sc(N3CCN(C(=O)CS(=O)(=O)c4ccc(F)cc4)CC3)nc12 | inactive: -9.97% | –
2 | Cc1ccc(Cl)cc1-n1ncc2c(NC3CCCCC3)ncnc21 | inactive: 2.91% | –
3 | N#Cc1cccc(Nc2ncnc3c2cnn3-c2cccc(Cl)c2)c1 | inactive: -7.56% | –
4 | COc1ccc(CNC(=O)Cn2c(=O)nc(-c3ccccc3F)c3cc(Cl)ccc32)cc1OC | – | inactive
5 | COc1cc(OC)c2c(C)c(CC(=O)NCCc3ccccc3OC)c(=O)oc2c1 | inactive: -6.78% | –
6 | Cc1cc(C(=O)N2CCN(c3ccc(F)cc3)CC2)c2c(C)nn(-c3cccc(Cl)c3C)c2n1 | inactive: -9.29% | –
7 | CCc1ccc(S(=O)(=O)c2cnc3ccc(OC)cc3c2N2CCCC(C)C2)cc1 (configuration not stated) | inactive: 4.78% | –
8 | CCCc1nc2nc(C)c(NS(=O)(=O)c3ccc(F)cc3)c(=O)n2[nH]1 | inactive: -0.475% | –
9 | Cc1ccc(C)c(NC(=O)Cn2nnc(C(=O)NCCc3ccccc3)c2N)c1 | inactive: -4.19% | –
10 | CCOC(=O)c1ccc(NC(=O)C(CC)Sc2nnc3c4ccccc4n(C)c3n2)cc1 (configuration not stated) | inactive: -4.19% | –
11 | COC(=O)c1cccc(Nc2c(-c3ccc(OC)cc3)nc3nc[nH]n23)c1 | inactive: -8.18% | –
12 | CC(=O)ON=C1C(c2c(O)[nH]c3cc(Br)ccc23)=Nc2ccccc21 | inactive: -20.1% | –
13 | CCC1=Nc2cc(C(=O)NCc3ccccc3Cl)ccc2Sc2ccc(C)cc21 | inactive: 5.48% | –
14 | Cc1cc(C)c(NC(=O)Cn2c(=O)n(Cc3ccc4c(c3)OCO4)c(=O)c3ccccc32)c(C)c1 | – | inactive
15 | Cc1cccc(NC(=O)CSc2nc(=O)n(Cc3ccco3)c3c2CCC3)c1C | inactive: 4.14% | –
16 | CCOc1ccc(NC(=O)[C@H]2O[C@@H]3OC(C)(C)O[C@@H]3[C@H]3OC(C)(C)O[C@H]32)cc1 | inactive: 2.86% | –
17 | COc1cccc(CNC(=O)CSc2n[nH]c(-c3ccccc3Cl)n2)c1OC | inactive: -5.9% | –
18 | CCOc1ccccc1CNC(=O)c1cn(-c2ccc(OC)cc2)c(=O)c2ccccc12 | – | inactive
19 | CCc1ccc(Oc2c(C(F)(F)F)oc3c(CN4CCN(CC)CC4)c(O)ccc3c2=O)cc1 | inactive: -9.85% | –
20 | O=C(Nc1nc2ccc(S(=O)(=O)N3CCCC3)cc2s1)c1ccc(F)cc1 | inactive: -12% | –
21 | CCOc1ccc(CN(C(=O)c2nc(SC)ncc2Cl)C2CCS(=O)(=O)C2)cc1 (configuration not stated) | inactive: -7.63% | –
22 | CCc1nn(CC(=O)NCc2ccccc2Cl)c(=O)c2cc3ccccc3n12 | inactive: 4.21% | –
23 | O=c1c(N2CCN(c3cccc(Cl)c3)CC2)csc2ccccc12 | inactive: 3.02% | –
24 | Cc1ccc2cc3cc(C(=O)N4CCN(c5ccccc5)CC4)oc3nc2c1 | inactive: -3.31% | –

Row | Structure (SMILES) | activity change, negative = inhibition | outcome
25 | Cc1cc(C)cc(NC(=O)C(=O)NCCCN2CCOCC2)c1 | inactive: -15.1% | –
26 | COCCCNC(=O)c1ccc(Cn2c(=O)c3ccccc3n(CC(=O)Nc3ccc(C)cc3C)c2=O)cc1 | – | inactive
27 | COc1ccc(-c2nc3nc(C)cc(N4CCN(c5cccc(C(F)(F)F)c5)CC4)n3n2)cc1 | – | inactive
28 | CCOC(=O)N1CCc2c(sc3c2c(=O)n(-c2ccc(Cl)cc2)c(=O)n3Cc2cccc(OC)c2)C1 | inactive: -3.62% | –
29 | CCOC(=O)c1noc2ncnc(N3CCN(c4cccc(Cl)c4)CC3)c12 | – | inactive
30 | CCN(Cc1ccccc1)C(=O)c1cc2c(=O)oc3ccc(C)cc3c2s1 | inactive: -0.132% | –
31 | Cc1ccc(-c2nc(S(=O)(=O)c3ccc(C)cc3)c(SCC(=O)Nc3ccc(F)cc3)o2)cc1 | inactive: -8.5% | –
32 | CCc1ccc(S(=O)(=O)c2nnn3c2nc(Nc2cc(OC)cc(OC)c2)c2cc(Cl)ccc23)cc1 | inactive: 1.11% | –
33 | Cc1cccc(N2CC(c3nc4ccccc4n3CCC3CCCCC3)CC2=O)c1 (configuration not stated) | inactive: 4.74% | –
34 | Cc1cccc2c1-c1sc(C(=O)NCc3ccc(Cl)cc3)cc1CO2 | inactive: -31.4% | –
35 | CCOc1ccc(C(=O)Nc2ccccc2C(=O)OCc2cc(=O)n3nc(C4CC4)sc3n2)cc1 | inactive: 2.22% | –
36 | COc1ccc(CCNC(=O)c2cc3c(s2)-c2c(C)cccc2OC3)c(OC)c1 | inactive: 5.61% | –
37 | CC(C)c1cc(C(=O)NC(C)c2ccccc2)no1 (configuration not stated) | – | inactive
38 | CCCCCSc1nnc2c(n1)OC(CC)Nc1ccc(Br)cc1-2 (configuration not stated) | inactive: -3.47% | –
39 | COCCn1c(C)cc(O)c(C(c2ccc(Cl)cc2)N2CCN(c3ccccc3)CC2)c1=O (configuration not stated) | inactive: 2.18% | –
40 | COc1ccc(NC(=O)Nc2cccc(OCc3cc(=O)n4cccc(C)c4n3)c2)c(OC)c1 | inactive: 3.56% | –
41 | CN1C(C(=O)c2ccccc2)=C(NC(=O)c2ccccc2Br)c2ccccc2S1(=O)=O | inactive: 2.92% | –
42 | COc1ccc(-c2cc(C(C)=O)c(C)n2CCC(=O)Nc2ccc(C)cc2Cl)cc1 | inactive: -11.5% | –
43 | COc1cc(C2N=C(N)Nc3nc4ccccc4n32)ccc1OCC(=O)O (configuration not stated) | – | inactive
44 | Cc1cc(C)cc(Nc2nc3ccccc3n3cnnc23)c1 | inactive: 5.28% | –
45 | O=S(=O)(c1ccc2[nH]c3c(c2c1)CCCC3)N1CCN(c2cccc(C(F)(F)F)c2)CC1 | inactive: 2.91% | –
46 | CCn1c(=O)cc(SCC(=O)NCCc2cccc(C)c2)c2ccccc21 | inactive: -0.627% | –
47 | O=c1n(Cc2ccc(Cl)cc2)c2ccccc2c2nc(-c3ccccc3)nn12 | inactive: -18.2% | –
